Assay [1] concerns the target T1, flotillin-2-GST (rat) (UniProt Q9Z2S9).
T1 sequence: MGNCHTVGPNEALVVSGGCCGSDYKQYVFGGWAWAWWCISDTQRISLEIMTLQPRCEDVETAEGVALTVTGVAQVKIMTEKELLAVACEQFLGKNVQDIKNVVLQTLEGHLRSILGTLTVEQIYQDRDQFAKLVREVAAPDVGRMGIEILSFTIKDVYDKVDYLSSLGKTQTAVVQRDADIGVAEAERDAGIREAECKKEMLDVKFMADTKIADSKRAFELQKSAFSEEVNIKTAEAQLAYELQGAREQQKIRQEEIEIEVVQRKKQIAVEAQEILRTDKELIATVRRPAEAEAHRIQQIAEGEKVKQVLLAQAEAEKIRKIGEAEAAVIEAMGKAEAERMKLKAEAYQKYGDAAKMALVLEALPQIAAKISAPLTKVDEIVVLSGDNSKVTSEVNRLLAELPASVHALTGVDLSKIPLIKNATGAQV
Briefly: pull-down; indirect GST pulldown: 5 µg GST-tagged protein on glutathione sepharose beads with MCF10A lysate (1.2-1.25 mg total protein; also lysates of flotillin-1 or flotillin-2 knockdown MCF10A cells), over night at 4°C; 10 mM Tris-HCl pH 8.0, 150 mM NaCl, 5 mM EDTA, 0.5% Triton X-100, 60 mM N-octylglucoside; only the target purified.

Sequences of proteins named here, by UniProt entry; tags and fusion partners are left off.
UniProt P35222: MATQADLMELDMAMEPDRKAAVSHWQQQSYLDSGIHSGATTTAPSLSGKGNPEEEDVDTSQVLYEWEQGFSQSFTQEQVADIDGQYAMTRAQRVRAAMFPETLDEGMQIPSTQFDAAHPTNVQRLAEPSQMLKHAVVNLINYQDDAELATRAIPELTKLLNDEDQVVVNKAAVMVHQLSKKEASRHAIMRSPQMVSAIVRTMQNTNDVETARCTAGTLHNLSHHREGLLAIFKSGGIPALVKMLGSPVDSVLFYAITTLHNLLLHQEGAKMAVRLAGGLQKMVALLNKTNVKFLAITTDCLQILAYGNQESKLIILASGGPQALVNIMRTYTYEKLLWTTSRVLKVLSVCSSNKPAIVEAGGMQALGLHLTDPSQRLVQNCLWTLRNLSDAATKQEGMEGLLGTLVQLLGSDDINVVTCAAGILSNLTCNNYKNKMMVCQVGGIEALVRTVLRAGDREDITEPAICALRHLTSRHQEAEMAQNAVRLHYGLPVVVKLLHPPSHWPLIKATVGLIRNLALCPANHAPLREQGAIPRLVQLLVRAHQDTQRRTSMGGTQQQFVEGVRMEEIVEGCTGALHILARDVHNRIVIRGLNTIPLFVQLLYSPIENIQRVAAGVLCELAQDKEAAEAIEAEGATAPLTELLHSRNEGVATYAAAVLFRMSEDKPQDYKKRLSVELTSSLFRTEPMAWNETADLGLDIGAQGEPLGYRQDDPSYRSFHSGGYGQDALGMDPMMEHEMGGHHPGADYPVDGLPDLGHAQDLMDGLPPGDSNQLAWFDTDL

Assay [2] concerns the target T2, flotillin-1-GST (rat) (UniProt Q9Z1E1).
T2 sequence: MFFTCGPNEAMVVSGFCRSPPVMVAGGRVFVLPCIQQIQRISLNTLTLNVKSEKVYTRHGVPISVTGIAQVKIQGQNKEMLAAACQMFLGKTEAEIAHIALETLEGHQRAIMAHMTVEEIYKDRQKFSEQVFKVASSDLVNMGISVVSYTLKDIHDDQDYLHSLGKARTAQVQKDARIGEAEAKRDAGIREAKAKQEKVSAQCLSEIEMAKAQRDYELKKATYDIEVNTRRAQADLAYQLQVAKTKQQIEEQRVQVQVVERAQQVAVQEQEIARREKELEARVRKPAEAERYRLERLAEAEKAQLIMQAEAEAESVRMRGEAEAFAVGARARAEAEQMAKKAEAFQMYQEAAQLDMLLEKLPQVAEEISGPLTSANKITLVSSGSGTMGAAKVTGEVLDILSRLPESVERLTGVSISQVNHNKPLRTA
The assay is described as above.

Assay [3] concerns the target T3, flotillin-2 (human (endogenous in MCF10A, MCF7, HaCaT, Hep3B, HeLa)) (UniProt Q14254).
T3 sequence: T1 sequence with S372A, N422K, A426V
In words: co-IP; IP with antibodies against flotillin-2 and flotillin-1 from MCF7 cells grown confluent for 5 days; 750 µg total protein.

Assay [4] addresses T3, flotillin-2 (human (endogenous in MCF10A, MCF7, HaCaT, Hep3B, HeLa)). In words: co-IP; IP with flotillin-1 or flotillin-2 antibodies from MCF7, HaCaT, Hep3B and HeLa lysates; 750 µg total protein.
Assay [5] shares this target. Briefly: co-IP; IP with polyclonal flotillin-1 or flotillin-2 antibody on Dynabeads protein A from lysate of MCF10A cells grown confluent for 5 days; 750 µg total protein; 10 mM Tris-HCl pH 8.0, 150 mM NaCl, 5 mM EDTA, 0.5% Triton X-100, 60 mM N-octylglucoside.
The target of assay [6] is T1, flotillin-2-GST (rat). Briefly: pull-down; indirect GST pulldown: 5 µg GST-tagged protein on glutathione sepharose beads with MCF10A lysate (1.2-1.25 mg total protein; also lysates of flotillin-1 or flotillin-2 knockdown MCF10A cells), over night at 4°C; 10 mM Tris-HCl pH 8.0, 150 mM NaCl, 5 mM EDTA, 0.5% Triton X-100, 60 mM N-octylglucoside; only the target purified. The source holds these as a separate data set.

Assay [7] addresses T2, flotillin-1-GST (rat). The assay is described as above. This is another data set of the same source.
For assay [8], the target named is T4, flotillin-1 (human (endogenous in MCF10A, MCF7, HaCaT, Hep3B, HeLa)) (UniProt O75955).
T4 sequence: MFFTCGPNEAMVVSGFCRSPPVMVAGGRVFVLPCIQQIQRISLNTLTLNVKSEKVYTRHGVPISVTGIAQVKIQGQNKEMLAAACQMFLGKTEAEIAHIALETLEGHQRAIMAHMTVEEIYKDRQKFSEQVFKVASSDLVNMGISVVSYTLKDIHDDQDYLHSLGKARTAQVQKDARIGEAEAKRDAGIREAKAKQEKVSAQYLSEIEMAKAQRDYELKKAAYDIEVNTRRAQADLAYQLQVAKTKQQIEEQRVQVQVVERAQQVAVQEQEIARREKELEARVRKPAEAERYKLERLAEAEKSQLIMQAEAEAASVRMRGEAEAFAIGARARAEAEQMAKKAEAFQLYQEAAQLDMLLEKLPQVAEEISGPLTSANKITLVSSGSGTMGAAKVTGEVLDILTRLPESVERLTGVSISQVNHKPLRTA
Briefly: co-IP; IP with antibodies against flotillin-2 and flotillin-1 from MCF7 cells grown confluent for 5 days; 750 µg total protein.

Residue numbers refer to the chain shown, from its start. Where two headings read alike, the source gives them in different places. No constants are given. Whether binding was seen depends on the method and setting. Binding seen in cells or lysates may run through a third protein. Some binding calls cover weakened binding; strength is not graded here. For some of these results: Where a sequence is shown, tags or fusion partners need not be part of it.

Take β-catenin (from UniProt P35222 1-781): the binding result in the assay with flotillin-2-GST (rat) [1] is listed as “no binding”; with flotillin-1-GST (rat) [2], “binds weakly”; in assay [3], “binds weakly”.

B1: γ-catenin (protein, UniProt P14923 1-745)
chain: MEVMNLMEQPIKVTEWQQTYTYDSGIHSGANTCVPSVSSKGIMEEDEACGRQYTLKKTTTYTQGVPPSQGDLEYQMSTTARAKRVREAMCPGVSGEDSSLLLATQVEGQATNLQRLAEPSQLLKSAIVHLINYQDDAELATRALPELTKLLNDEDPVVVTKAAMIVNQLSKKEASRRALMGSPQLVAAVVRTMQNTSDLDTARCTTSILHNLSHHREGLLAIFKSGGIPALVRMLSSPVESVLFYAITTLHNLLLYQEGAKMAVRLADGLQKMVPLLNKNNPKFLAITTDCLQLLAYGNQESKLIILANGGPQALVQIMRNYSYEKLLWTTSRVLKVLSVCPSNKPAIVEAGGMQALGKHLTSNSPRLVQNCLWTLRNLSDVATKQEGLESVLKILVNQLSVDDVNVLTCATGTLSNLTCNNSKNKTLVTQNSGVEALIHAILRAGDKDDITEPAVCALRHLTSRHPEAEMAQNSVRLNYGIPAIVKLLNQPNQWPLVKATIGLIRNLALCPANHAPLQEAAVIPRLVQLLVKAHQDAQRHVAAGTQQPYTDGVRMEEIVEGCTGALHILARDPMNRMEIFRLNTIPLFVQLLYSSVENIQRVAAGVLCELAQDKEAADAIDAEGASAPLMELLHSRNEGTATYAAAVLFRISEDKNPDYRKRVSVELTNSLFKHDPAAWEAAQSMIPINEPYGDDMDATYRPMYSSDVPLDPLEMHMDMDGDYPIDTYSDGLRPPYPTADHMLA
As to B1, the binding entry (in assay [4]; in assay [5]; in assay [3]; with flotillin-2-GST (rat) [6]; with flotillin-1-GST (rat) [7]) was “binds” in each case.

B2: p120catenin (protein, UniProt O60716 1-968)
chain: MDDSEVESTASILASVKEQEAQFEKLTRALEEERRHVSAQLERVRVSPQDANPLMANGTLTRRHQNGRFVGDADLERQKFSDLKLNGPQDHSHLLYSTIPRMQEPGQIVETYTEEDPEGAMSVVSVETSDDGTTRRTETTVKKVVKTVTTRTVQPVAMGPDGLPVDASSVSNNYIQTLGRDFRKNGNGGPGPYVGQAGTATLPRNFHYPPDGYSRHYEDGYPGGSDNYGSLSRVTRIEERYRPSMEGYRAPSRQDVYGPQPQVRVGGSSVDLHRFHPEPYGLEDDQRSMGYDDLDYGMMSDYGTARRTGTPSDPRRRLRSYEDMIGEEVPSDQYYWAPLAQHERGSLASLDSLRKGGPPPPNWRQPELPEVIAMLGFRLDAVKSNAAAYLQHLCYRNDKVKTDVRKLKGIPVLVGLLDHPKKEVHLGACGALKNISFGRDQDNKIAIKNCDGVPALVRLLRKARDMDLTEVITGTLWNLSSHDSIKMEIVDHALHALTDEVIIPHSGWEREPNEDCKPRHIEWESVLTNTAGCLRNVSSERSEARRKLRECDGLVDALIFIVQAEIGQKDSDSKLVENCVCLLRNLSYQVHREIPQAERYQEAAPNVANNTGPHAASCFGAKKGKDEWFSRGKKPIEDPANDTVDFPKRTSPARGYELLFQPEVVRIYISLLKESKTPAILEASAGAIQNLCAGRWTYGRYIRSALRQEKALSAIADLLTNEHERVVKAASGALRNLAVDARNKELIGKHAIPNLVKNLPGGQQNSSWNFSEDTVISILNTINEVIAENLEAAKKLRETQGIEKLVLINKSGNRSEKEVRAAALVLQTIWGYKELRKPLEKEGWKKSDFQVNLNNASRSQSSHSYDDSTLPLIDRNQKSDKKPDREEIQMSNMGSNTKSLDNNYSTPNERGDHNRTLDRSGDLGDMEPLKGTTPLMQDEGQESLEEELDVLVLDDEGGQVSYPSMQKI
As for B2, the binding result in assay [8] is given as “no binding”; in assay [3] it was “binds weakly”.
